Experimental data reported in patent publication US5245034A, “Compound having vessel smooth muscle relaxation activity” (Hidaka; Kiroyoshi, priority 1988, dated 1993).
At least one structure is not confirmed: it was looked up by name or label, or the drawing left a doubt.

Target: Calmodulin-Dependent Phosphodiesterase (Ca^2+ PDE)
Assay: Calmodulin-Dependent Phosphodiesterase Inhibition (Ca^2+ PDE)
Assay type: biochemical, rat
Conditions: [^3 H]-cGMP, 30° C.
Experimental: Phosphodiesterase (Ca^2+ PDE)Ca^2+ PDE was partially purified from the brain of rat by DEAE-Sepharose column chromatography.
Calmodulin was purified from the calf brain using a calmodulin inhibitor W-7 affinity column.
A reaction mixture contained 20 μl of 500 mM Tris-HCl (pH 8.0), 20 μl of 50 mM MgCl2, 20 μl of 2 mM CaCl2 (or 10 mM EGTA), 20 μl of 1 mg/ml bovine serum albumin, PDE, […] of calmodulin, test sample and distilled water to make total volume 200 μl. To the mixture was added 20 μl of 4 μM [^3 H]-cGMP (2.5 μCi/ml), the mixture was incubated at 30° C. for 15 minutes, and then heated in boiling water for 3 to 5 minutes to terminate the reaction, and cooled in ice-water bath. 20 μg of 5'-nucleotidase (Snake venum) was added to the mixture, and the mixture was again incubated at 30° C. for 10 minutes. After addition of about 2 ml of water, the sample was applied to a cation exchange resin column (Biorad AG.AG50W-X4 to adsorbe the [^3 H]-guanosine and additionally about 2 ml of washing water for the sample was added to the column. The column was washed with about 20 ml of water, and the adsorbed [^3 H]-guanosine was eluted with 3 ml of 3N NH4 OH, and the elute was directly received by a vial. After an addition of 10 ml of an emulsified scintillation solution (ACS-II, AMERSHAM) the radio activity was measured by a scintillation counter LS7500 (Beckmann). The enzyme activity in the presence of calmodulin was taken as […], and a concentration of a test compound in μM which provides a 50% inhibition was expressed as IC50.

SMILES: CN(C(Cc1ccc(O)c(O)c1)CN1CCN(c2ccccc2)CC1)S(=O)(=O)c1cccc2cnccc12 (centres unmarked) [Example 7, N-{1-[(3,4-Dihydroxyphenyl)Methyl]-2-(4-Phenylpiperazinyl)Ethyl}-N-Methyl-Isoquinoline Sulfonamide]
- IC50: 13 µM

SMILES: O=S(=O)(NC(Cc1ccc(O)c(O)c1)CN1CCN(c2ccccc2)CC1)c1cccc2cnccc12 (centres unmarked) [Example 8, N-{1-[(3,4-Dihydroxyphenyl)Methyl]-2-(4-Phenylpiperazinyl)Ethyl}-5-Isoquinoline Sulfonamide]
- IC50: 51 µM

SMILES: O=S(=O)(c1cccc2cnccc12)N1Cc2cc(O)c(O)cc2CC1CN1CCN(c2ccccc2)CC1 (centres unmarked) [Example 10, 6,7-Dihydroxy-2-(5-Isoquinolinesulfonyl)-3-[(4-Phenylpiperazinyl)methyl]-1,2,3,4-tetrahydroisoquinoline]
- IC50: 37 µM

SMILES: O=S(=O)(NC(Cc1ccc(O)cc1)CN1CCN(c2ccccc2)CC1)c1cccc2cnccc12 (centres unmarked) [Example 37, N-[1-(p-hydroxybenzyl)-2-(4-phenylpiperazinyl)ethyl]-5-isoquinolinesulfonamide]
- IC50: 29 µM

SMILES: CN(C(Cc1ccccc1)CN1CCN(c2ccccc2)CC1)S(=O)(=O)c1cccc2cnccc12 (centres unmarked) [Example 43, N-[1-benzyl-2-(4-phenylpiperazinyl)ethyl]-N-methyl-5-isoquinolinesulfonamide]
- IC50: 3.8 µM

SMILES: CN(C(Cc1ccc(O)cc1)CN1CCN(c2ccccn2)CC1)S(=O)(=O)c1cccc2cnccc12 (centres unmarked) [Example 46, N-{1-(p-hydroxybenzyl)-2-[4-(2-pyridyl)piperazinyl]ethyl}-N-methyl-5-isoquinolinesulfonamide]
- IC50: 36 µM

SMILES: CN(C(Cc1ccc(O)cc1)CN1CCN(c2cccc(Cl)c2)CC1)S(=O)(=O)c1cccc2cnccc12 (centres unmarked) [Example 47, N-{2-[4-(m-chlorophenyl)piperazinyl]-1-(p-hydroxybenzyl)ethyl}-N-methyl-5-isoquinolinesulfonamide]
- IC50: 18 µM

SMILES: CN(C(Cc1ccc(O)cc1)CN1CCN(c2ccc(F)cc2)CC1)S(=O)(=O)c1cccc2cnccc12 (centres unmarked) [Example 50, N-{1-(p-hydroxybenzyl)-2-[4-(p-fluorophenyl)piperazinyl]ethyl}-N-methyl-5-isoquinolinesulfonamide]
- IC50: 11 µM

SMILES: Cc1cccc(N2CCN(CC(Cc3ccc(O)cc3)N(C)S(=O)(=O)c3cccc4cnccc34)CC2)c1 (centres unmarked) [Example 51, N-{1-(p-hydroxybenzyl)-2-[4-(m-methylphenyl)piperazinyl]ethyl}-N-methyl-5-isoquinolinesulfonamide]
- IC50: 38 µM

SMILES: COc1ccccc1N1CCN(CC(Cc2ccc(O)cc2)N(C)S(=O)(=O)c2cccc3cnccc23)CC1 (centres unmarked) [Example 56, N-{1-(p-hydroxybenzyl)-2-[4-(2-methoxyphenyl)piperazinyl]ethyl}-N-methyl-5-isoquinolinesulfonamide]
- IC50: 39 µM

SMILES: CN(C(Cc1ccc(O)cc1)CN1CCN(C(=O)OCc2ccccc2)CC1)S(=O)(=O)c1cccc2cnccc12 (centres unmarked) [Example 67, N-[2-(4-benzyloxycarbonylpiperazinyl)-1-(p-hydroxybenzyl)ethyl]-N-methyl-5-isoquinolinesulfonamide]
- IC50: 3.6 µM

SMILES: COc1ccc(CC(CN2CCN(C(=O)OCc3ccccc3)CC2)N(C)S(=O)(=O)c2cccc3cnccc23)cc1 (centres unmarked) [Example 72, N-[2-(4-benzyloxycarbonylpiperazinyl)-1-(p-methoxybenzyl)ethyl]-N-methyl-5-isoquinolinesulfonamide]
- IC50: 6.2 µM

SMILES: COc1ccc(CC(CN2CCN(C(=O)OCc3ccccc3)CC2)NS(=O)(=O)c2cccc3cnccc23)cc1 (centres unmarked) [Example 73, N-[2-(4-benzyloxycarbonylpiperazinyl)-1-(p-methoxybenzyl)ethyl]-5-isoquinolinesulfonamide]
- IC50: 21 µM

SMILES: CN(C(Cc1ccc(OS(=O)(=O)c2cccc3cnccc23)cc1)CN1CCCN(c2ccccc2)CC1)S(=O)(=O)c1cccc2cnccc12 (centres unmarked) [Example 81, N-{1-[p-(5-isoquinolinesulfonyloxy)benzyl]-2-(4-phenylhomopiperazinyl)ethyl}-N-methyl-5-isoquinolinesulfonamide]
- IC50: 32 µM
